± gives the standard error. Variants at the background level are over-represented here.
B1: glmS ribozyme (parent)
chain: AUAAAAGCGCCAGAACUACAGAAAUGUAGUUGACGAGGAGGAGGUUUAUCGAAUUUUCGGCGGAUGCCUCCAAA

Columns and labels:
Settings in all cases: with glucosamine-6-phosphate
[1] = variants of: B1; test: self-cleavage kobs at 640 uM GlcN6P; higher = faster cleavage; RNA array
In short: (§1)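 In situ transcription by E. coli RNA polymerase produced barcoded ribozyme variants on sequenced MiSeq chips, and a hybridised Cy3 probe tracked them at 37 °C. Glucosamine-6-phosphate was flowed in at 40 μM to 10 mM in HEPES/KCl/Mg(OAc)2 buffer. kcat and KM were taken from weighted Michaelis–Menten fits of kobs values from exponential decay fits.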

[2] = variants of: B1; test: self-cleavage kobs at 2500 uM GlcN6P; higher = faster cleavage; RNA array
In short: as §1

[3] = variants of: B1; test: self-cleavage kobs at 10000 uM GlcN6P; higher = faster cleavage; RNA array
In short: as §1

[4] = variants of: B1; test: self-cleavage kobs at 160 uM GlcN6P; higher = faster cleavage; RNA array
In short: as §1

Variant | self-cleavage kobs at 640 uM GlcN6P [1] [s⁻¹] | self-cleavage kobs at 2500 uM GlcN6P [2] [s⁻¹] | self-cleavage kobs at 10000 uM GlcN6P [3] [s⁻¹] | self-cleavage kobs at 160 uM GlcN6P [4] [s⁻¹]
G7U A12U A15G | < 1e-05 | < 1e-05 | – | –
A6U G32C C67U C70U | < 1e-05 | < 1e-05 | – | –
A6G C10G G37C G43A C58A C71A | < 1e-05 | – | < 1e-05 | –
A6U G7C G51U | < 1e-05 | < 1e-05 | – | –
G7C C8U U45G | < 1e-05 | < 1e-05 | – | –
G7C A36U | < 1e-05 | – | – | < 1e-05
G7U A15U G43C | < 1e-05 | < 1e-05 | < 1e-05 | –
A6U G43C | < 1e-05 | – | < 1e-05 | < 1e-05
A6U G41C U56G | < 1e-05 | – | – | < 1e-05
A6U A14G | 0.000135 ± 2.3e-05 | 0.000414 ± 8.3e-05 | 0.000513 ± 8.4e-05 | 4.93e-05 ± 2.3e-05
G7A A42U A48C C50A G60C G63U | < 1e-05 | < 1e-05 | < 1e-05 | < 1e-05
A6U G38C C70G | < 1e-05 | < 1e-05 | – | < 1e-05
A6U G7C A48C | < 1e-05 | < 1e-05 | – | < 1e-05
G7U A33C A36C | < 1e-05 | < 1e-05 | – | –
G7C A14U G29A G32A G66C | < 1e-05 | – | – | –
G7C G44U C61U C70G | < 1e-05 | < 1e-05 | – | –
G7U C10G C11A U47A U49A A53U G62A | < 1e-05 | – | < 1e-05 | –
G7C A42U A48C G62U | < 1e-05 | – | – | –
G7A C16A U57G G63U A64U | < 1e-05 | < 1e-05 | < 1e-05 | –

Variant | self-cleavage kobs at 640 uM GlcN6P [1] [s⁻¹] | self-cleavage kobs at 2500 uM GlcN6P [2] [s⁻¹] | self-cleavage kobs at 10000 uM GlcN6P [3] [s⁻¹] | self-cleavage kobs at 160 uM GlcN6P [4] [s⁻¹]
G7A G35U A36U | < 1e-05 | – | – | < 1e-05
A6G U31A A36G A48U | < 1e-05 | – | – | –
G7A C16U C71A | < 1e-05 | – | – | –
G7C G32A A39C G44A U46A G63C C71G | < 1e-05 | < 1e-05 | – | –
A6G C16G G21A G51C U56C | < 1e-05 | – | – | –
G7C U45A | < 1e-05 | < 1e-05 | < 1e-05 | < 1e-05
A6G G35A U45G C67U | < 1e-05 | – | – | –
A6G G41A | < 1e-05 | – | – | < 1e-05
A6U C10G G63C | < 1e-05 | < 1e-05 | – | < 1e-05
G7A A15C G66A | < 1e-05 | < 1e-05 | – | < 1e-05
A6G C8U C58A | < 1e-05 | – | – | –
A6C U31C G62A | < 1e-05 | – | – | –
A6G G32C G63C | < 1e-05 | – | – | –
G7C U49A A52C G62A U69A | < 1e-05 | – | – | –
G7A G37C | < 1e-05 | – | – | < 1e-05
G7C A12U U45C | < 1e-05 | – | < 1e-05 | < 1e-05
A6U G41U G51U | < 1e-05 | < 1e-05 | – | < 1e-05
G7C A15C A36G G38C A42C | < 1e-05 | – | – | –
G7A A53U C61U | < 1e-05 | < 1e-05 | – | –

Variant | self-cleavage kobs at 640 uM GlcN6P [1] [s⁻¹] | self-cleavage kobs at 2500 uM GlcN6P [2] [s⁻¹] | self-cleavage kobs at 10000 uM GlcN6P [3] [s⁻¹] | self-cleavage kobs at 160 uM GlcN6P [4] [s⁻¹]
G7C A42C U54A | < 1e-05 | < 1e-05 | – | –
A6U G35U G38C | < 1e-05 | < 1e-05 | < 1e-05 | –
G7A C11A G43C G59A | < 1e-05 | < 1e-05 | – | < 1e-05
A6U C10A A39G G40C C61G C67G | < 1e-05 | < 1e-05 | – | < 1e-05
A6G G59U A64C | < 1e-05 | < 1e-05 | – | < 1e-05
G7C G38U A53G U54G | < 1e-05 | – | – | < 1e-05
G7A C10A U31A A36G | < 1e-05 | – | – | –
A6G U30G A36C | < 1e-05 | < 1e-05 | – | –
A6C G7A G29A G40C U54A C61A C68G | < 1e-05 | < 1e-05 | – | –
A6C U46C U49A U65G | < 1e-05 | < 1e-05 | – | –
G7C G13U A15U | < 1e-05 | – | – | < 1e-05
A6C G32U A48G | < 1e-05 | – | – | < 1e-05
A6G A36C C50G | 0.000132 ± 3.4e-05 | – | – | –
A6C U47C U54G | < 1e-05 | – | – | –
A6G C11A G35A | < 1e-05 | – | – | –
G7C C10A C71A | < 1e-05 | – | – | –
A6U G37C G63A | < 1e-05 | – | – | –
A6G A12U G43A C50U C68A | < 1e-05 | < 1e-05 | – | –

Reference: the supplement of paper PMC7125110
